Patent publication US20110060124A1, “HLA-BINDING PEPTIDES, PRECURSORS THEREOF, DNA FRAGMENTS AND RECOMBINANT VECTORS THAT CODE FOR THOSE PEPTIDE SEQUENCES” (priority 2004, published 2011)
Peptide text beside a SMILES is read from it.

Biological target: HLA-A2 type molecule, product of the HLA-A*0201 gene (Homo sapiens, UniProt P04439, D140Y/D185E/D98H/E176V/E277Q/G131W/G231S/I119V/I121R/I166T/I218V/L300P/L318F/N151K/N90K/P208A/P217A/Q86G/Q94H/R138H/R169H/T345S)
Test: biochemical

| SMILES | Kd |
| --- | --- |
| CC(C)C[C@H](NC(=O)[C@@H](N)CCCCN)C(=O)N[C@@H](CC(C)C)C(=O)N1CCC[C@H]1C(=O)N[C@@H](CCCNC(=N)N)C(=O)N[C@@H](CC(C)C)C(=O)N1CCC[C@H]1C(=O)NCC(=O)N[C@H](C(=O)O)C(C)C [compound 124] (H-KLLPRLPGV-OH) | 0.196 µM |
| CC[C@H](C)[C@H](NC(=O)[C@H](C)N)C(=O)N[C@@H](CC(C)C)C(=O)N[C@@H](CO)C(=O)N1CCC[C@H]1C(=O)NCC(=O)N[C@@H](C)C(=O)N[C@@H](CC(C)C)C(=O)N[C@H](C(=O)O)C(C)C [compound 131] (H-AILSPGALV-OH) | 0.571 µM |
| CC[C@H](C)[C@H](NC(=O)[C@H](CC(C)C)NC(=O)[C@@H](N)CO)C(=O)N[C@@H](CCCNC(=N)N)C(=O)N[C@H](C(=O)N1CCC[C@H]1C(=O)N[C@@H](Cc1ccc(O)cc1)C(=O)N[C@@H](Cc1ccccc1)C(=O)N[C@H](C(=O)O)C(C)C)C(C)C [compound 132] (H-SLIRVPYFV-OH) | 1.37 µM |
| CC[C@H](C)[C@H](NC(=O)[C@H](Cc1c[nH]c2ccccc12)NC(=O)[C@H](CC(=O)O)NC(=O)[C@H](Cc1c[nH]c2ccccc12)NC(=O)[C@@H](NC(=O)[C@@H](N)CC(=O)O)C(C)C)C(=O)N[C@@H](CS)C(=O)N[C@H](C(=O)N[C@H](C(=O)O)C(C)C)[C@@H](C)O [compound 133] (H-DVWDWICTV-OH) | 10.5 µM |
| CC[C@H](C)[C@H](NC(=O)[C@@H](N)C(C)C)C(=O)N1CCC[C@H]1C(=O)N[C@@H](C)C(=O)N[C@@H](CO)C(=O)NCC(=O)N[C@@H](CC(=O)O)C(=O)N[C@H](C(=O)N[C@H](C(=O)O)C(C)C)C(C)C [compound 134] (H-VIPASGDVV-OH) | 0.574 µM |
| CC(C)C[C@H](NC(=O)[C@H](C)NC(=O)[C@@H](N)CCCNC(=N)N)C(=O)N[C@@H](C)C(=O)N[C@@H](Cc1c[nH]cn1)C(=O)NCC(=O)N[C@H](C(=O)N[C@@H](CCCNC(=N)N)C(=O)N[C@H](C(=O)O)C(C)C)C(C)C [compound 135] (H-RALAHGVRV-OH) | 5.2 µM |
| CC(C)C[C@H](N)C(=O)N[C@@H](CO)C(=O)N[C@@H](CC(=O)O)C(=O)NCC(=O)N[C@@H](CO)C(=O)N[C@@H](Cc1c[nH]c2ccccc12)C(=O)N[C@@H](CO)C(=O)N[C@H](C(=O)N[C@H](C(=O)O)C(C)C)[C@@H](C)O [compound 136] (H-LSDGSWSTV-OH) | 0.598 µM |
| CC[C@H](C)[C@H](NC(=O)[C@H](CCC(=O)O)NC(=O)CNC(=O)[C@@H]1CCCN1C(=O)[C@H](CO)NC(=O)[C@@H](N)Cc1ccc(O)cc1)C(=O)N[C@@H](CC(N)=O)C(=O)N[C@@H](CCCNC(=N)N)C(=O)N[C@H](C(=O)O)C(C)C [compound 141] (H-YSPGEINRV-OH) | 0.889 µM |
| CC(C)C[C@H](NC(=O)[C@H](CC(=O)O)NC(=O)[C@H](CCC(N)=O)NC(=O)[C@H](CC(=O)O)NC(=O)[C@@H](NC(=O)[C@H](CC(N)=O)NC(=O)[C@@H](NC(=O)[C@@H](N)Cc1ccc(O)cc1)[C@@H](C)O)C(C)C)C(=O)N[C@H](C(=O)O)C(C)C [compound 142] (H-YTNVDQDLV-OH) | 2.1 µM |
| CSCC[C@H](NC(=O)[C@@H](N)CS)C(=O)N[C@@H](CO)C(=O)N[C@@H](C)C(=O)N[C@@H](CC(=O)O)C(=O)N[C@@H](CC(C)C)C(=O)N[C@@H](CCC(=O)O)C(=O)N[C@H](C(=O)N[C@H](C(=O)O)C(C)C)C(C)C [compound 146] (H-CMSADLEVV-OH) | 15.5 µM |
| CC[C@H](C)[C@H](NC(=O)[C@H](CC(C)C)NC(=O)[C@H](CO)NC(=O)[C@H](C)NC(=O)[C@H](CCC(N)=O)NC(=O)[C@H](CC(C)C)NC(=O)[C@@H](N)C(C)C)C(=O)N[C@@H](CCCNC(=N)N)C(=O)N[C@H](C(=O)O)C(C)C [compound 149] (H-VLQASLIRV-OH) | 3.44 µM |
| CC(C)[C@H](NC(=O)[C@@H]1CCCN1C(=O)[C@H](C)NC(=O)[C@H](C)NC(=O)[C@H](C)NC(=O)[C@H](CCC(=O)O)NC(=O)[C@H](C)NC(=O)[C@H](CCC(N)=O)NC(=O)[C@@H](N)CCCCN)C(=O)O [compound 150] (H-KQAEAAAPV-OH) | 3.84 µM |
| CC(C)C[C@H](NC(=O)[C@@H](N)C(C)C)C(=O)N[C@@H](CC(=O)O)C(=O)N[C@@H](CC(=O)O)C(=O)N[C@@H](Cc1c[nH]cn1)C(=O)N[C@@H](Cc1ccc(O)cc1)C(=O)N[C@@H](CCCNC(=N)N)C(=O)N[C@@H](CC(=O)O)C(=O)N[C@H](C(=O)O)C(C)C [compound 152] (H-VLDDHYRDV-OH) | 0.308 µM |
| CC[C@H](C)[C@H](NC(=O)[C@@H](N)C(C)C)C(=O)N[C@@H](CC(C)C)C(=O)N[C@@H](CC(=O)O)C(=O)N[C@@H](CO)C(=O)N[C@@H](Cc1ccccc1)C(=O)N[C@@H](CCC(=O)O)C(=O)N1CCC[C@H]1C(=O)N[C@@H](CC(C)C)C(=O)O [compound 162] (H-VILDSFEPL-OH) | 4.1 µM |
| CC(C)C[C@H](NC(=O)[C@H](Cc1c[nH]c2ccccc12)NC(=O)[C@@H](NC(=O)[C@H](CCCCN)NC(=O)[C@H](Cc1ccccc1)NC(=O)[C@H](CC(=O)O)NC(=O)[C@H](C)NC(=O)[C@H](CC(C)C)NC(=O)[C@@H](N)C(C)C)[C@@H](C)O)C(=O)O [compound 170] (H-VLADFKTWL-OH) | 0.962 µM |
| CC[C@H](C)[C@H](NC(=O)[C@H](Cc1c[nH]c2ccccc12)NC(=O)[C@H](CC(=O)O)NC(=O)[C@H](Cc1c[nH]c2ccccc12)NC(=O)[C@@H](NC(=O)[C@H](CC(=O)O)NC(=O)[C@H](CCCNC(=N)N)NC(=O)[C@H](CC(C)C)NC(=O)[C@@H](N)Cc1c[nH]c2ccccc12)C(C)C)C(=O)O [compound 179] (H-WLRDVWDWI-OH) | 2.08 µM |
